Measurements from a collection of fitness landscapes (doi:10.1016/j.celrep.2020.107928).
Whole data set: some 81,000 sequences, median “one-hybrid fitness for binding parS DNA” near -0.17, cut for the highest 2% near 0.51. The list shows a part of the results.

B1: Caulobacter ParB omega fusion; a variant is named by its letters at X, in order, B8GW30 (parent)
chain: MESVVVGEPGMSEGRRGLGRGLSALLGEVDAAPAQAPGEQLGGSREAPIEILQRNPDQPRRTFREEDLEDLSNSIREKGVLQPILVRPSPDTAGEYQIVAGERAWRAAQRAGLKTVPIMVRELDDLAVLEIGIIENVQRADLNVLEEALSYKVLMEKFERTQENIAQTIGKSXSHVANXMRLLXLPDEVQSYLVSGELTAXHARAIAAAADPVALAKQIIEGGLSVRETEALARKAPNLSAGKSKGGRPPRVKDTDTQALESDLSSVLGLDVSIDHRGSTGTLTITYATLEQLDDLCNRLTRGI

Variants of: B1
Assay: one-hybrid fitness for binding parS DNA (scaled: cognate 1, non-cognate 0); higher = stronger binding
Conditions: with parS DNA site
How it was run: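 Caulobacter ParB libraries with four specificity codons randomised were screened by bacterial one-hybrid selection in the E. coli USO strain, using a HIS3 reporter whose site lies 19 bp from the promoter. Selection ran for 48 hours at 37°C on M9 lacking histidine, with 0.1 mM IPTG and 5 mM 3-AT. Plasmids were Illumina-sequenced before and after selection, three replicate libraries were pooled, and variants with under 10 reads were dropped. Fitness is the log change in each variant's read ratio to wild type, rescaled against the cognate and non-cognate sites.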

Variant | one-hybrid fitness for binding parS DNA
WGDC | ≤ 0.2
WLTS | ≤ 0.2
TEIS | ≤ 0.2
CQPC | ≤ 0.2
LTHN | ≤ 0.2
TYPS | ≤ 0.2
SIQE | ≤ 0.2
QRKW | ≤ 0.2
MNVL | ≤ 0.2
PVIL | ≤ 0.2
EAVY | ≤ 0.2
SRPT | ≤ 0.2
CMYE | ≤ 0.2
GFTG | ≤ 0.2
IQSS | ≤ 0.2
PLQM | ≤ 0.2
HYLA | ≤ 0.2
QGEE | ≤ 0.2
TRSS | ≤ 0.2
CLWF | ≤ 0.2
EVYT | ≤ 0.2
AVRC | ≤ 0.2
RCIK | ≤ 0.2
LVSS | ≤ 0.2

Variant | one-hybrid fitness for binding parS DNA
PPSS | ≤ 0.2
LSMS | ≤ 0.2
KQSL | ≤ 0.2
IKDG | ≤ 0.2
GAKW | ≤ 0.2
TIHI | ≤ 0.2
MCLC | ≤ 0.2
MFDR | ≤ 0.2
ETWS | ≤ 0.2
MVYH | ≤ 0.2
NSQR | ≤ 0.2
DGAY | ≤ 0.2
KGRI | ≤ 0.2
GKDW | ≤ 0.2
WGSG | ≤ 0.2
VWMI | ≤ 0.2
GYTM | ≤ 0.2
YAWI | ≤ 0.2
IEPY | ≤ 0.2
THYD | ≤ 0.2
DAHY | ≤ 0.2
AATA | ≤ 0.2
WYPG | ≤ 0.2
PGRS | ≤ 0.2

Variant | one-hybrid fitness for binding parS DNA
NALG | ≤ 0.2
HDSW | ≤ 0.2
WATR | ≤ 0.2
YMYL | ≤ 0.2
LMVK | ≤ 0.2
QYKI | ≤ 0.2
PGGP | ≤ 0.2
IWKS | ≤ 0.2
GRKS | ≤ 0.2
TAET | ≤ 0.2
VHNI | ≤ 0.2
TSSH | ≤ 0.2
ASPF | ≤ 0.2
CTNE | ≤ 0.2
GYDC | ≤ 0.2
QNLG | ≤ 0.2
TFQI | ≤ 0.2
TPEE | ≤ 0.2
QGAG | ≤ 0.2
RNQW | ≤ 0.2
LICF | ≤ 0.2
CHHT | ≤ 0.2
TCKT | ≤ 0.2
SLWN | ≤ 0.2

Variant | one-hybrid fitness for binding parS DNA
RRIR | ≤ 0.2
DYAS | ≤ 0.2
DNYY | ≤ 0.2
PHMV | ≤ 0.2
GATT | ≤ 0.2
MKYT | ≤ 0.2
GWKG | ≤ 0.2
EKQT | ≤ 0.2
EYSG | ≤ 0.2
YQRG | ≤ 0.2
VYMT | ≤ 0.2
RDSD | ≤ 0.2
TNQG | ≤ 0.2
MSIT | ≤ 0.2
SVGC | ≤ 0.2
WPTQ | ≤ 0.2
KIGS | ≤ 0.2
VAND | ≤ 0.2
IPTY | ≤ 0.2
HARP | ≤ 0.2
PNNL | ≤ 0.2
NKDI | 0.206
VYKC | ≤ 0.2
RACL | ≤ 0.2

Variant | one-hybrid fitness for binding parS DNA
PTHK | ≤ 0.2
CNMP | ≤ 0.2
CYHS | ≤ 0.2
WRAP | ≤ 0.2
PFPQ | ≤ 0.2
PYPM | ≤ 0.2
LLHE | ≤ 0.2
RLFF | 0.207
LMKR | ≤ 0.2
LQLS | ≤ 0.2
LGIC | ≤ 0.2
HSME | ≤ 0.2
RNGT | 0.696
PIMA | ≤ 0.2
MSSC | ≤ 0.2
QDCV | ≤ 0.2
RDPM | ≤ 0.2
QGYE | ≤ 0.2
THHT | ≤ 0.2
QETP | ≤ 0.2
HLSM | ≤ 0.2
AIMR | ≤ 0.2
FRLV | ≤ 0.2
KTLQ | ≤ 0.2

Variant | one-hybrid fitness for binding parS DNA
EHQS | ≤ 0.2
RWAA | 0.378
RNSD | ≤ 0.2
WNQG | ≤ 0.2
RVVF | 0.22
AMTW | ≤ 0.2
HYQE | ≤ 0.2
TPGM | ≤ 0.2
IRNI | ≤ 0.2
QYDS | ≤ 0.2
HKKT | ≤ 0.2
EPFG | ≤ 0.2
GWLI | ≤ 0.2
ETCR | ≤ 0.2
RKII | ≤ 0.2
SSLA | ≤ 0.2
LADP | ≤ 0.2
WNAL | ≤ 0.2
MRGY | ≤ 0.2
QFMG | ≤ 0.2
RQNP | ≤ 0.2
RCKL | ≤ 0.2
WYAL | ≤ 0.2
DLDR | ≤ 0.2

Variant | one-hybrid fitness for binding parS DNA
IMHM | ≤ 0.2
TNSN | ≤ 0.2
AWPS | ≤ 0.2
QNTC | ≤ 0.2
ARRW | ≤ 0.2
QKEE | ≤ 0.2
VSNK | ≤ 0.2
MLRG | ≤ 0.2
EPAP | ≤ 0.2
KAHR | ≤ 0.2
DCTR | ≤ 0.2
PNNV | ≤ 0.2
CQGA | ≤ 0.2
LTHI | ≤ 0.2
MRVR | ≤ 0.2
KVSW | ≤ 0.2
QYTD | ≤ 0.2
TITC | ≤ 0.2
QKPY | ≤ 0.2
RMML | ≤ 0.2
TQTS | ≤ 0.2
FPTG | ≤ 0.2
RYQG | 0.971
QVKE | ≤ 0.2

Variant | one-hybrid fitness for binding parS DNA
SINS | ≤ 0.2
KRAS | ≤ 0.2
HCGP | ≤ 0.2
RETF | ≤ 0.2
IGAT | ≤ 0.2
RPFK | ≤ 0.2
RIIS | 0.994
APSV | ≤ 0.2
VGPC | ≤ 0.2
HHML | ≤ 0.2
CPNL | ≤ 0.2
LGHT | ≤ 0.2
IRSF | ≤ 0.2
TKRS | ≤ 0.2
REDE | ≤ 0.2
QLSN | ≤ 0.2
IFDS | ≤ 0.2
AWYG | ≤ 0.2
DTMG | ≤ 0.2
DNEV | ≤ 0.2
FYYG | ≤ 0.2
TVKA | ≤ 0.2
TDGD | ≤ 0.2
TTHY | ≤ 0.2

Variant | one-hybrid fitness for binding parS DNA
VLDM | ≤ 0.2
SFVT | ≤ 0.2
RNFA | 0.301
KMPG | ≤ 0.2
ISNW | ≤ 0.2
RANF | 0.24
GDMG | ≤ 0.2
LAVR | ≤ 0.2
PENR | ≤ 0.2
RTNC | 0.914
GGHS | ≤ 0.2
QNRE | ≤ 0.2
QHFV | ≤ 0.2
ALGG | ≤ 0.2
SCSN | ≤ 0.2
RVVI | ≤ 0.2
PRFE | ≤ 0.2
NRKM | ≤ 0.2
DGKF | ≤ 0.2
DCTS | ≤ 0.2
AWKI | ≤ 0.2
RHRG | 0.903
FTEI | ≤ 0.2
QCNS | ≤ 0.2

Variant | one-hybrid fitness for binding parS DNA
NPIA | ≤ 0.2
ISPL | ≤ 0.2
QEAN | ≤ 0.2
LSHA | ≤ 0.2
VMAR | ≤ 0.2
PTLG | ≤ 0.2
RIET | 0.709
LKDH | ≤ 0.2
NQNT | ≤ 0.2
QSQD | ≤ 0.2
FRHC | ≤ 0.2
GKRT | ≤ 0.2
DGIC | ≤ 0.2
NAQN | ≤ 0.2
KEGM | ≤ 0.2
LYPG | ≤ 0.2
QGRS | ≤ 0.2
ASAF | ≤ 0.2
RDCN | ≤ 0.2
GPPK | ≤ 0.2
MMGR | ≤ 0.2
QNAP | ≤ 0.2
FKYR | ≤ 0.2
SMVF | ≤ 0.2

Variant | one-hybrid fitness for binding parS DNA
TPEY | ≤ 0.2
NMMP | ≤ 0.2
NSHK | ≤ 0.2
PDEG | ≤ 0.2
AKYG | ≤ 0.2
DLPG | ≤ 0.2
ENYT | ≤ 0.2
HFIV | ≤ 0.2
ERII | ≤ 0.2
FHHI | ≤ 0.2
KYSC | ≤ 0.2
MTAW | ≤ 0.2
YCKK | ≤ 0.2
RLTV | ≤ 0.2
SKKG | ≤ 0.2
YSIG | ≤ 0.2
NYNM | ≤ 0.2
HTKV | ≤ 0.2
MTDS | ≤ 0.2
HPLQ | ≤ 0.2
VCNA | ≤ 0.2
AYNH | ≤ 0.2
KMKC | ≤ 0.2
GGMD | ≤ 0.2

Variant | one-hybrid fitness for binding parS DNA
ASHD | ≤ 0.2
FASD | ≤ 0.2
QAIV | ≤ 0.2
FRQV | ≤ 0.2
YDMS | ≤ 0.2
FAKS | ≤ 0.2
QLYI | ≤ 0.2
FPSS | ≤ 0.2
NIRQ | ≤ 0.2
CHAG | ≤ 0.2
RLGL | ≤ 0.2
RYPN | ≤ 0.2
RLCK | ≤ 0.2
KKAL | ≤ 0.2
MQNC | ≤ 0.2
YNMG | ≤ 0.2
KPFV | ≤ 0.2
PPGF | ≤ 0.2
KLIT | ≤ 0.2
WVSV | ≤ 0.2
RSPF | ≤ 0.2
IRFE | ≤ 0.2
RANH | ≤ 0.2
QMKV | ≤ 0.2

Variant | one-hybrid fitness for binding parS DNA
YAIS | ≤ 0.2
MNLR | ≤ 0.2
FGAY | ≤ 0.2
HNYW | ≤ 0.2
GNMF | ≤ 0.2
QPPI | ≤ 0.2
AGIL | ≤ 0.2
NHDY | ≤ 0.2
QCHH | ≤ 0.2
MRFN | ≤ 0.2
KGAG | ≤ 0.2
SVWR | ≤ 0.2
AFTQ | ≤ 0.2
HTDL | ≤ 0.2
PSNN | ≤ 0.2
FRGG | ≤ 0.2
MFVS | ≤ 0.2
RSDL | ≤ 0.2
